± gives the standard deviation of the averaged measurements. The list shows a part of the results.
System: PfAP2-LT AP2 domain (GST-tagged)
Assay: gcPBM binding intensity (ln(normalized median fluorescence intensity)); higher = stronger DNA binding
Method in brief: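 The binding buffer was 1× PBS containing 1% milk, 0.2 mg/ml BSA, 0.5% salmon testes DNA and 0.03% Triton X-100. In it, GST-tagged P. falciparum DNA-binding domains expressed in E. coli were applied for 1 h to an Agilent 4 × 180k array of primer-extended double-stranded 36-bp intergenic genomic probes plus negative controls. Binding intensity, read with Alexa488 anti-GST antibody and a 488 nm scan, is the highest Masliner-normalised natural-log median intensity across replicate spots of either probe orientation.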

| Sequence | gcPBM binding intensity (ln) |
| --- | --- |
| TATTATAATATATTTGTGCACATAATATCTCCGCTA [GTGCAC_site9799] | 8.95 ± 0.53 |
| AAAAAGATAAAATATACATGCATATATAATATACAT [TGCATGCA_site488] | 8.94 ± 0.4 |
| TGCTTATATATAAATTGTACTGAAAGAATAAAATAA [XGTACX_site4025] | 8.47 ± 0.4 |
| TTTATTTTAAATGGGTGTACTCATTCCTTATGGAAG [XGTACX_site1397] | 8.42 ± 0.58 |
| TAATAGATGTTATGAAGTACTAAATATTAAATATAA [XGTACX_site5717] | 8.59 ± 0.45 |
| AAAATAATTCATGTTGGTAATAAGACTCGAGGTGAA [CACACA_negctrl_site1054] | 8.82 ± 0.45 |
| TTGACAGGAACGTTGGTGCACGTACTGTTTTTCTTT [GTGCAC_site9389] | 8.84 ± 0.39 |
| TTTGGATAAAAAATATGTACACACATATAGATATCT [XGTACX_site5660] | 8.88 ± 0.32 |
| GTATAATATTTTAATGCACACACACTAATAAAAAAA [CACACA_site8939] | 9.41 ± 0.36 |
| AAGTATAAATAAAGGCGTACACATGTAAATTATATT [XGTACX_site126] | 9.28 ± 0.5 |
| TGTTCATTTTTAAAATGTACATATATGTTGTTCCAT [XGTACX_site8444] | 8.92 ± 0.54 |
| AAAACATAAATACATACACACATAATATAGATTAAT [CACACA_site6205] | 9.38 ± 0.4 |
| TATATACAACGTTAAGCACACACAAAAAAAATTTAA [CACACA_site9013] | 9.15 ± 0.52 |
| CATATGTATATGACTACACACAAGGGTGTACCTATA [CACACA_site6670] | 9.19 ± 0.44 |
| TTAAAAATAAATTCATGTACATAATATATATATATA [XGTACX_site7908] | 8.68 ± 0.27 |
| TTGCATTTATTATACACACACAAAAAAATATTTATA [CACACA_site6252] | 9.08 ± 0.33 |
| ACGTATTTTTAAATATATGAATTATGTAACTTGTGA [CACACA_negctrl_site1446] | 8.53 ± 0.38 |
| TATACTATTTAAATGTGTACTAAAAGAATATATTAT [XGTACX_site5238] | 8.53 ± 0.42 |
| GAATATGTGATATTTTGTACATAAAAATAATATATA [XGTACX_site6398] | 8.7 ± 0.55 |
| CTATATGTTAAATTCTCACACATTATTACAATTTAA [CACACA_site5979] | 8.66 ± 0.52 |
| TTTTTTTTTTTGTTTAAACACACGAGCTTTCTTCTT [CACACA_site4085] | 9.06 ± 0.59 |
| CATGTATTTTATATTACACACTAATATTATAGATAT [CACACA_site6819] | 8.71 ± 0.4 |
| AAACATATAAACATATGTACATATAAACATATATAC [XGTACX_site5026] | 9.03 ± 0.38 |

| Sequence | gcPBM binding intensity (ln) |
| --- | --- |
| ATATTCTTTTTATGTGGTACTAATTTTTTTTTTTTA [XGTACX_site3791] | 8.66 ± 0.57 |
| TAAAACATAAGAGACACACACACATATATATATATA [CACACA_site3643] | 10.1 ± 0.16 |
| TTTTTAAAACATCACTGTACCCGTTATGGTGAACAT [XGTACX_site3483] | 8.62 ± 0.49 |
| AGTAAAAGAAAGCACACACACATGTATATAGGTATG [CACACA_site7759] | 9.87 ± 0.34 |
| TTTTTAAATAATTGAAGTACACATTTCTCTAAGTTG [XGTACX_site2846] | 8.39 ± 0.46 |
| TTTTTAATTATCTTTTCCCATGGTTTCTCCGTTTTT [XGTACX_negctrl_site39] | 8.93 ± 0.56 |
| CAAAATAAAAATAACACACACATTTATATATATACA [CACACA_site1190] | 9.4 ± 0.39 |
| ATATGTTTTGTTTACGTGCACTGCTTTGTTTATATA [GTGCAC_site9622] | 9.4 ± 0.45 |
| AGCATATTATCATATTGTACATATTATAATATATAT [XGTACX_site3907] | 8.93 ± 0.38 |
| ATTTCTCAATCTTAATGTACAAAAAAAAGGAAAAAG [XGTACX_site1210] | 8.49 ± 0.45 |
| TAAAAATTTTAATAAACACACAATGAGATATTGAAT [CACACA_site5704] | 8.71 ± 0.43 |
| AGCAAATCAGATAGTAGTACATTTAAATTAGACTTT [XGTACX_site4172] | 8.7 ± 0.52 |
| TATATATATATATGTGCATGTAATGATTCAGCATCT [TGCATGCA_site803] | 9.69 ± 0.2 |
| CACATATAGTTATATGCACACATCTTACACATCTAT [CACACA_site5937] | 9.44 ± 0.46 |
| AACACAGATAAATTAACACACACACCCATATATATA [CACACA_site9310] | 9.85 ± 0.23 |
| TAGCTTATTAATATCATACACACATAGATATATTTA [CACACA_site3105] | 8.77 ± 0.35 |
| ATGAAATATCGGAACGCACACATAAATATATTTATA [CACACA_site2670] | 9.27 ± 0.45 |
| TTGAACTCTCTTACGCGTACGTGTTATTATGAAAAT [XGTACX_site6265] | 8.98 ± 0.42 |
| CAATTTGGGGTGTACACACACCTTATTTAAATTAAA [CACACA_site6663] | 8.86 ± 0.51 |
| ATCATGTTATATACATGTACATATATATATATATAA [XGTACX_site609] | 9.19 ± 0.3 |
| TTTTATTTTTTTAAATGTACACATATTAATGTAAGG [XGTACX_site319] | 8.43 ± 0.44 |
| ATCATCCAAGATCTTACACACATATTAAATAAATAA [CACACA_site1473] | 8.95 ± 0.45 |
| AAAAGGAATATAATCATTCAAAAATATAATATATAT [GTGCAC_negctrl_site551] | 8.62 ± 0.49 |

| Sequence | gcPBM binding intensity (ln) |
| --- | --- |
| TTACATAATTTCTGCTGTACCAATTTTGAGAAGTTG [XGTACX_site4023] | 8.62 ± 0.5 |
| ATGTAAATATATATATGTACTAATTAGTAGTTTACG [XGTACX_site6271] | 9.15 ± 0.46 |
| TCCTTATTACTTTTTTAAGTCGTAATGAAAGAAAAA [CACACA_negctrl_site1497] | 8.14 ± 0.35 |
| CATACATACATACATACACACATACAGATATATATA [CACACA_site4890] | 9.4 ± 0.38 |
| TTTTATAAATTATAATTCTATTATCTGTTCTTTTTA [TGCATGCA_negctrl_site487] | 8.68 ± 0.61 |
| ATCTTAACTCTATGCACACATAAAAGTATATAAATA [CACACA_site2256] | 8.87 ± 0.35 |
| TACGTTCTGATATATACACACCTGGTATTAATTATG [CACACA_site7113] | 9.2 ± 0.44 |
| AGAAAAATTATATATACACACTTATATTTATATATA [CACACA_site5555] | 8.69 ± 0.44 |
| AGTATACGCAAACACACACACACAAAAAAAAAAAAA [CACACA_site426] | 9.91 ± 0.53 |
| TATTATATTTATATTTGTACTTAAAATATTATACAC [XGTACX_site2881] | 8.71 ± 0.45 |
| AAATAAGAAAATCATAGTACATAGGAATAGAAGAAC [XGTACX_site3135] | 9.15 ± 0.45 |
| AATGTCATGATACATACACACACATACACATACACA [CACACA_site8665] | 9.67 ± 0.3 |
| TATTAAATATTGTAATGTACATATATAATATAATAT [XGTACX_site1809] | 8.57 ± 0.33 |
| ATATCTTATTTTCCTTGTACTTATTTCATAATTACA [XGTACX_site3894] | 8.91 ± 0.33 |
| CAATAAACCATTTTTTGTACATAAAAATAGGTATTG [XGTACX_site1892] | 8.62 ± 0.38 |
| AATTTCCCATATTACACACATACTATGATATATAAA [CACACA_site3834] | 8.88 ± 0.32 |
| TAAATATGTATAAATTGTACAAAATATATGAATAGT [XGTACX_site5659] | 9.01 ± 0.39 |
| TTTTTTTTTTTAAATTGTACTTATTTTATATTATAT [XGTACX_site1077] | 8.54 ± 0.56 |
| CATACACCCATACATACACACATACATATATATATA [CACACA_site8591] | 9.62 ± 0.15 |
| ATATAATGTTTCACATGTACAAACAACACAAAAAAA [XGTACX_site1899] | 8.84 ± 0.45 |
| AAAAGATATATTATATGTACTAATTATATGATAAAT [XGTACX_site4192] | 8.6 ± 0.54 |
| AATTATGAAAAATCAAGTACAAACAAAATCATAATT [XGTACX_site5665] | 9.1 ± 0.42 |
| AAAGAGAAATTTAAATGTACATTTGTTCTAAGTGTA [XGTACX_site3602] | 8.61 ± 0.49 |

| Sequence | gcPBM binding intensity (ln) |
| --- | --- |
| TTAAAAAAAGAAAAAAAAAAAAAAAAAAAAAAACAT [CACACA_negctrl_site475] | 8.64 ± 0.61 |
| TATAAAAATATTTCTACACACATTAATATTTATATA [CACACA_site6661] | 8.67 ± 0.41 |
| TATTATATTCTGCTTACACACATATATATATATATA [CACACA_site3060] | 9.5 ± 0.085 |
| GTGATAATTGCTTGGTGTACCCACATATATATATAT [XGTACX_site1636] | 9.38 ± 0.32 |
| GTTCTAAATATTATTGCATGTTGCACGTTTCTCTGT [TGCATGCA_site159] | 9.26 ± 0.38 |
| TTCTGTTGGAATATATGTACATAATAAAAAAAAATA [XGTACX_site1741] | 8.48 ± 0.47 |
| AATAAATAAAAAAAAAAAAAAAAAAAAAAAAAAAAA [XGTACX_negctrl_site343] | 8.14 ± 0.47 |
| TTTTTTTTTTTTGTAATACACACCACTATATGTTAT [CACACA_site1844] | 8.92 ± 0.49 |
| TGTAGTCTGGAGAAAAGTACACAGTATCTGGTAACA [XGTACX_site2010] | 8.78 ± 0.53 |
| AGTTTTATAAAAATATGTACTTATATACACATGTAT [XGTACX_site4022] | 8.98 ± 0.45 |
| TATGGCAAAACATTCACACATATTTATATATGTGTA [CACACA_site5588] | 8.88 ± 0.32 |
| TATTCTGGTGTAAATGCACACAGAAGAAGAAAAAAA [CACACA_site9225] | 8.98 ± 0.54 |
| AAGGACACCTTCAAAACACACATACAAATAAATAGA [CACACA_site5771] | 9.13 ± 0.57 |
| AAAATTAAATTATAAGCACACACATATATATATATA [CACACA_site9105] | 9.41 ± 0.23 |
| TACATACCTATATACACATGCATATTTACATATATT [TGCATGCA_site206] | 9.19 ± 0.35 |
| TACATACAGATATATACACACATATATAATATATAT [CACACA_site4376] | 9.21 ± 0.42 |
| GTAAAAATACAAAAGGTGCTCAAACAATATAATACA | 9.03 ± 0.47 |
| AATGGATTGATAAGTGGTACACACATATATATTATA [XGTACX_site6086] | 9.07 ± 0.27 |
| GAATATTAAACAAACACACACACATATATTTATATA [CACACA_site7563] | 9.73 ± 0.27 |
| TATATAATATATATGACACACATATTTATATAAATA [CACACA_site4054] | 8.81 ± 0.4 |
